The values below come from paper PMC4336329 (PLoS ONE, 2015).

Screen size: about 310,000 compounds; about 14,000 (4.5%) showed an effect of 50% or more. Effects have a minus sign here. The list shows a part of the results.
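Also: peak tail current of the secondary pulse compared with the same well before compound.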

human ether-à-go-go-related gene (hERG) potassium channel, sequence (Q12809 whole entry, looked up): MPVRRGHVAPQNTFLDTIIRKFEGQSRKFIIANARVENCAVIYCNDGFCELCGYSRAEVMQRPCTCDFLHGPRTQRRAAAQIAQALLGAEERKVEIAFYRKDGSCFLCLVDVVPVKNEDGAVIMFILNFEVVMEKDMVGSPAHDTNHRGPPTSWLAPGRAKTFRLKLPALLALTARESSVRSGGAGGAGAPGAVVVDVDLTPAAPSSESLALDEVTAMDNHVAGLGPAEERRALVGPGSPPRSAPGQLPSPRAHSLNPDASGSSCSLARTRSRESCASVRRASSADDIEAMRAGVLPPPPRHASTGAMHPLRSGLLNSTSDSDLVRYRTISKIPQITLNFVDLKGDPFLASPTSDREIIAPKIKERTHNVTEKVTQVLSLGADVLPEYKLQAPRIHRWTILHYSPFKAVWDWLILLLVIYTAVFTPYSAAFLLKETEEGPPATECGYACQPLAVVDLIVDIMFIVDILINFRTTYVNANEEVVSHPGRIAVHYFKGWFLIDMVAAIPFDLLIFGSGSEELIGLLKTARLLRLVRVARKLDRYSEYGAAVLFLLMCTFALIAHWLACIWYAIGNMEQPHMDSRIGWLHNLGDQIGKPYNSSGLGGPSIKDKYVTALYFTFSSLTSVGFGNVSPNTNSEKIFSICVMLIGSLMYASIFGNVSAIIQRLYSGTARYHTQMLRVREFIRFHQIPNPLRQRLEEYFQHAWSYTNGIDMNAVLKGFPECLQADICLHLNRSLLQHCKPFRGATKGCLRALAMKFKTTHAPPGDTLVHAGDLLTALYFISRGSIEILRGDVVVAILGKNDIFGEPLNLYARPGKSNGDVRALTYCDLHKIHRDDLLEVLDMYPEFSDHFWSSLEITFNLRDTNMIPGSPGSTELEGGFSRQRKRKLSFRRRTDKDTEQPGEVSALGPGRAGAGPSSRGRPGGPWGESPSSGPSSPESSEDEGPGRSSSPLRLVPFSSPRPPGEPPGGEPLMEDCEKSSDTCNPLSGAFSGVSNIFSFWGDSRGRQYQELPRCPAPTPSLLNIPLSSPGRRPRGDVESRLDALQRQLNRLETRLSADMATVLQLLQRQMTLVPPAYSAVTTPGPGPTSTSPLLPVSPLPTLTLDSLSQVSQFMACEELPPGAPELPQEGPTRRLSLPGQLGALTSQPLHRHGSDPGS

The test has as its target human ether-à-go-go-related gene (hERG) potassium channel (human, UniProt Q12809). The test is described as follows: primary screen, population patch clamp on CHO cells stably expressing hERG.
Turning to `FC(F)Sc1ccc(Nc2ncnc3nc[nH]c23)cc1`, the “hERG current change (%, negative = inhibition) at 10uM” value stood at 1.42%.
For `O=[N+]([O-])c1cc(S(=O)(=O)/N=C(/c2ccccc2)N2CCOCC2)ccc1Cl` the value was -23.9%.
In the case of `CCOc1ccc2[nH]c3c(N4CCN(c5ccccn5)CC4)ncnc3c2c1` it was -59.4%; in that of `Cc1ccc(Nc2nnc(SCC(=O)Nc3ccccc3[N+](=O)[O-])s2)cc1`, 7.88%.
For `O=C(Nc1cc(C(F)(F)F)ccc1Cl)c1cccnc1` the value was -0.0865%.
Take `Cc1nc(Nc2ccc(F)cc2)nc(Nc2ccc(F)cc2)c1[N+](=O)[O-]`: the “hERG current change (%, negative = inhibition) at 10uM” value is given as 2.27%.
In the case of `O=C1NC(=O)N(Cc2ccccc2Cl)C(=O)/C1=C/c1cccs1` it was 11.8%.
In the case of `CCN(CC(=O)NC(C)C)C(=O)c1ccc(S(=O)(=O)N(C)c2ccccc2OC)cc1` it was -2.53%.
For `Oc1ccccc1C(=S)N1CCN(c2cccc(Cl)c2)CC1` the value was 3.92%; for `O=C(CNS(=O)(=O)c1cccs1)N1CCc2ccccc2C1`, -14.5%; for `NC(=O)c1ccc(NC(=O)COC(=O)CC2Sc3ccccc3NC2=O)cc1` (centres unmarked), 4.78%.
With `CC(=O)C1=C(C)OC(N)=C(C#N)C1c1cc([N+](=O)[O-])ccc1Cl` (centres unmarked), the “hERG current change (%, negative = inhibition) at 10uM” value is reported as -9.43%.
`COc1ccccc1CNC(=O)c1ccc(NC2=NC3CS(=O)(=O)CC3S2)cc1` (centres unmarked): the “hERG current change (%, negative = inhibition) at 10uM” value is listed as 5.84%.
In the case of `COCCn1c(SCC(=O)Nc2cc(C)on2)nc2ccccc21` it was 7.56%.
For `O=C(NC(=O)c1cnccc1C(F)(F)F)Nc1ccccc1` the value was -0.241%.
For `C[C@]12CCC(=O)C=C1[C@H](O)C[C@@H]1[C@@H]2[C@@H](O)C[C@@]2(C)[C@H]1CC[C@]2(O)C(=O)CO`, the “hERG current change (%, negative = inhibition) at 10uM” value is listed as 21%.
For `C/C(=N/NS(=O)(=O)c1ccc(C)cc1)[C@H]1C[C@@H]1c1ccccc1` the value was -2.74%; for `O=C(NCCCN1CCCC1=O)C1CCN(S(=O)(=O)c2c(Cl)cccc2Cl)CC1`, -0.379%.
In the case of `CC1(C)C(=O)Nc2ccccc2N1C(=O)COC(=O)C1CCCCC1` it was -4.27%.
For the compound `CC(c1ccco1)N(C(=O)c1cccs1)c1ccccn1` (centres unmarked), the “hERG current change (%, negative = inhibition) at 10uM” value came to 5.33%.
Take `COCCNC(=O)c1ccc(C)c(NC(=O)C2=C(C)OCCS2)c1`: the “hERG current change (%, negative = inhibition) at 10uM” value was 21.1%.
For `Nc1nonc1NC(=O)CSc1nc2ccccc2s1`, the “hERG current change (%, negative = inhibition) at 10uM” value was 11.2%.
In the case of `CC(C)NC(=S)N/N=C/c1sc(N2CCCCC2)nc1-c1cccs1` it was 1.56%.
In the case of `CCCCN(C(=O)CSc1nc2ccccc2n1CC)C1CCS(=O)(=O)C1` (centres unmarked) it was 0.601%; in that of `COc1ccc2cc(OCC(=O)NNC(=O)Nc3ccc(OC)c(OC)c3)ccc2c1`, 17.3%; in that of `CCOc1cc(C(=O)OCC(=O)Nc2ccc(SC(F)F)cc2)cc(OCC)c1OCC`, 4.57%.
In the case of `Cc1cc(NC(=O)CCC2CCCCC2)no1` it was -6.64%; in that of `O=C(Nc1cccc(C(=O)N2CCOCC2)c1)c1ccccc1`, -5.44%; in that of `Cc1cccc(OP(=O)(Nc2cccnc2)Oc2cccc(C)c2)c1`, -38.1%.
In the case of `CCc1ccc(N(CC(=O)NC2CCCCC2)C(=O)CCC(=O)Nc2ccccn2)cc1`, the “hERG current change (%, negative = inhibition) at 10uM” value is listed as -7.01%.
For `COc1ccccc1NC(=O)c1cccc(S(=O)(=O)N2CCN(Cc3ccccc3)CC2)c1` the value was -19.6%; for `CCCCNC(=O)NNC(=O)c1ccoc1C`, 6.58%.
In the case of `CC1(C)CC(CC(=O)Nc2ccccn2)C(=O)O1` (centres unmarked) it was -3.51%.
In the case of `CCOc1ccc(NC(=O)CN(C)C(=O)c2cn(-c3ccc(F)cc3)nc2-c2cccc(OC)c2)cc1OCC` it was 0.419%.
For the compound `C#Cc1ccc([C@H]2C=C(C(=O)NCc3ccccc3)O[C@@H](OCC)[C@@H]2CCCO)cc1`, the “hERG current change (%, negative = inhibition) at 10uM” value is on record as -25.4%.
For `c1ccc(-c2csc3nnc(SCc4ccc5c(c4)OCCO5)n23)cc1` the value was -3.29%; for `COc1cc(/C=C/C(=O)OCC(=O)Nc2ccc(NC(C)=O)cc2)cc(S(=O)(=O)N2CCc3ccccc32)c1OC`, 7.44%.
For `COC(=O)c1ccc(CN(c2ccccc2Cl)S(C)(=O)=O)cc1` the value was 13.2%.
For `Cc1ccc(-c2cn(-c3ccccc3)c(SCC(N)=O)n2)cc1C` the value was -36.2%; for `CCC(=O)Oc1ccc(C(=O)Nc2cccc(C(=O)c3ccccc3)c2)cc1`, -23.8%; for `COc1ccc(Br)cc1C(=O)Nc1cccc(-c2nnc(-c3ccco3)o2)c1`, -18.8%.
In the case of `CNC(=O)C(=O)NCCCN1CCOCC1`, the “hERG current change (%, negative = inhibition) at 10uM” value worked out at 7.92%.
In the case of `CCCCN1CCNC[C@H]1Cc1ccc(O)cc1` it was -9.4%; in that of `Cc1ccc(-n2ccc(=O)c(C(=O)Nc3ccc(S(=O)(=O)Nc4onc(C)c4C)cc3)n2)cc1`, 21.1%; in that of `O=C(O)CCC(=O)c1ccc2c(c1)OCCO2`, 1.89%.
In the case of `O=C(CCCCn1c(=O)c2ccccc2n(CC(=O)Nc2ccccc2)c1=O)NCc1ccco1` it was 7.33%; in that of `C=CCN1c2ccccc2[C@]23C[C@@H](C(=O)OC)N(C(=O)c4cc(C)oc4C)C2=NC(C(=O)OC)=C(C(=O)OC)[C@H]13`, -21%; in that of `CCOc1cc(/C=C2\CCn3c2nc2cc(Cl)ccc2c3=O)ccc1O`, 30.5%.
For `Cc1ccc(C(=O)NCC(=O)N2CCCC(C(F)(F)F)C2)s1` (centres unmarked) the value was 5.25%; for `COc1ccc(N(CC(=O)Nc2c(C)n(C)n(-c3ccccc3)c2=O)S(=O)(=O)c2ccc(F)cc2)cc1`, -14.9%; for `Cc1ccc(C#N)c(SCC(=O)Nc2nccs2)n1`, 10.6%.
With `O=C(O)/C(CC(=O)c1ccc(Cl)cc1)=N/Nc1ccc([N+](=O)[O-])cc1[N+](=O)[O-]`, the “hERG current change (%, negative = inhibition) at 10uM” value worked out at 9%.
In the case of `COc1cc(NC(=O)c2ccccc2[N+](=O)[O-])ccc1NC(=O)c1cc2ccccc2o1` it was 13%.
